Some of the results follow.
system: PfAP2-HC AP2 domain (GST-tagged); test: gcPBM binding intensity (ln(normalized median fluorescence intensity)); higher = stronger DNA binding
How it was run: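 GST-tagged P. falciparum DNA-binding domains produced in E. coli were incubated for 1 h on an Agilent 4 × 180k array of primer-extended double-stranded 36-bp intergenic genomic probes with negative controls. Binding intensity is the highest Masliner-normalised natural-log median intensity across replicate spots of either probe orientation, with bound protein detected by Alexa488 anti-GST antibody at 488 nm.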

Sequence	gcPBM binding intensity (ln)
TCATTTTACAGATGTGCATGTGAATCAATCTATTTA [TGCATGCA_site787]	9.56
AATATACAAATTACAAGTACAAATCAATATTATATG [XGTACX_site7521]	9.73
AAAAAAAAAAAAAAAACACACAAACAAATGAATAAA [CACACA_site5769]	9.93
GTATATAATTTATATTGTACGCATATTATTATCATT [XGTACX_site7277]	9.77
TGTAGTTTTTATTTATGTACGCATAACATAATTTAA [XGTACX_site104]	9.76
TATATATATAAATACACACACACATATATATATATA [CACACA_site4585]	10.3
ATCATACCTTTTAATGTACACACATTTCTTTTTTGT [CACACA_site8198]	10.4
TATATAAATAAAAAAAGTACATTACTTTTTAATTTA [XGTACX_site285]	9.44
TAGTATGATAACTTGGGTACATAAATATGGAGTATC [XGTACX_site1296]	9.72
TTTTTAATTCAAAAAACTGTATGTTATATGTCAAAT [CACACA_negctrl_site72]	9.3
TTCATTTTATTTTAAGTGCATATTTTTATTTTTTTG	9.66
AGAAAGGATATTATATGTACATATCTTTGTATTTTT [XGTACX_site5040]	9.97
CATACCCATAAACACACACACATATATACCTATATA [CACACA_site4745]	10.2
TGACAACATAGAGGGGCACACACATATATACATAAA [CACACA_site8550]	10.3
TAAAAGTATATATATACACACATAAATATATCTGTA [CACACA_site4537]	9.91
ATTTTTTTACAAAAATGTACACATGAAATATGTAAT [XGTACX_site1372]	9.47
TATTATTTTAGAATGCGTACTTATAAAATATTTTAT [XGTACX_site867]	9.54
GTGGAATAATATATATGTACATATTTAAAATATTTA [XGTACX_site3499]	9.62
AATGGTCTTTTCAACACACGTACATAAAAATATTAT [CACACA_site2571]	9.74
GTGTGATGGTCCAATATACACACTTAAAAAAAAAAA [CACACA_site2426]	9.5
TACTGTTATAAATGTGGTACTAATATTATACATATA [XGTACX_site5116]	9.59
TTAAATTATTAGAGAGTGCATTATATATATTATACA [GTGCAC_site9711]	9.29
TCTTTAATGATGTGTACACAAGAAAACATTGTTAAG [CACACA_site5299]	9.67

Sequence	gcPBM binding intensity (ln)
TAGAAGCATCATTTTACACACATGCAAATGTAAAAT [CACACA_site1893]	9.74
AAAAATAAGAGCGTAGCACACACGCATTTTATAAAT [CACACA_site8147]	9.81
ACATAAGAATTTTTATGTACTCATAATATTTTATAT [XGTACX_site2398]	9.62
GAAATATTTGTAAAAACATGCATGGTACTTTTAAAA [TGCATGCA_site6]	9.75
TACATACTAAAAAAATGTACTTGTATTGTTTTTTTA [XGTACX_site8357]	9.51
TATATATATATATACACATGCAAAAATTTTTAATTT [TGCATGCA_site82]	9.82
TTTCTATATGGATTTGCACACATAAAAATGCTTATA [CACACA_site8751]	9.77
TTATTTAACGTATTCTCACACATATATATATATAAT [CACACA_site5226]	9.84
ATATATATATATATATGTACATATGTTAGGATCAAA [XGTACX_site8626]	9.9
ATGACATATAAATATACACACATACGTAAGTATATT [CACACA_site5058]	9.79
TTATTGAACTTTTATAAAACCTGTATTATTATCTCT [CACACA_negctrl_site767]	9.71
TTATATTAATAATAAAGTACAAAAAATCATATATAA [XGTACX_site799]	9.67
TATTTCTTATTACATACACACATATACATATATGAC [CACACA_site3201]	9.83
TCCAGGCTACACTCTAGTACTCGTAGGGTTATGAGA [XGTACX_site4945]	9.44
ATATAATAACATAACACACACATGTATTTATAGGTG [CACACA_site359]	10.4
ACATTATAATATTATTGTACTATATATATAATATAT [XGTACX_site2291]	9.9
AAAAAAAAAAAAAAAACACACATATATATATAATAT [CACACA_site1159]	9.75
GATAATCAGAATGGGGTGCAAAGAAAAAAAAAAAAA	9.55
TTATATTTATATTTATGTACATATTTTGTGTGAAAA [XGTACX_site2367]	9.74
CCTAAATAATATCTATCACACACGCATATATACATA [CACACA_site8838]	9.96
TCTATTTATATGTATTGTACAATATAGATGTGTATT [XGTACX_site5646]	9.88
GTAATACACAGACACACACACATACACATATTTATA [CACACA_site7313]	10.5
AAATTAAAAATAATTACACACATAGAAAAATTATAT [CACACA_site2275]	9.91

Sequence	gcPBM binding intensity (ln)
TTCTATATATAATATTGTACTTAATTATTTTATTTT [XGTACX_site2701]	9.83
AGTGTATATAGAAACATACACACATATTAATTTTAC [CACACA_site3127]	9.78
ATATATATGCATTCAAGTACAAAAATATATGTTAAA [XGTACX_site910]	9.72
TAGCTGTTCAAAAAATGTACATATATAATATATATA [XGTACX_site5842]	9.45
TACACAAACGTTATACGTACACAGGTTTTTCTTTTA [XGTACX_site5427]	9.64
ATAATAAGAAAAAAAAAAAAAAAAAAAAAAAAAAAA [TGCATGCA_negctrl_site377]	8.9
ATATTGAAATGTTAATAGAAATATATGGTTAAATTG [XGTACX_negctrl_site212]	9.66
ATGTATATAAATAGGTGTACATATAAGGTGTTAAGC [XGTACX_site5465]	10
ATTTTATTTTATTAAGTGCAAAAAAAAAAAAAGAAA	9.47
ACCTCTCATATGTTATAAACAAAATGAAAATTTCAT [XGTACX_negctrl_site303]	9.55
TGTACAATATAAGGAGCACACAAAAATGGATAAATA [CACACA_site8216]	10.2
ATATGGCATAAAACATGTACATGTTCATAAATATAT [XGTACX_site1924]	9.8
AGAATTAAAATAATACGTACACACATGTATAATACA [XGTACX_site1878]	10.3
ATTATATCTATAATATGTACATATTATAATATATAT [XGTACX_site3211]	9.54
AATTGTTAATGGTACGAACACACATATAAAGATGCA [CACACA_site2043]	9.93
TATATATAAGAAAAAAGTACAGATATATATATATTC [XGTACX_site4788]	9.86
TATACAGACAGACACACACACATATATATATATATA [CACACA_site1734]	10.2
TTTTAAGAAAAAAAATGTACACATGAAAATAGTGAA [XGTACX_site5898]	9.5
AAATTTTCACTTCAAAAACACACGTATTTTTTTCCT [CACACA_site3813]	9.69
TGTTATATTATAACTACACACGTATTATGTTATATC [CACACA_site839]	9.86
GCTAGTTCATAAAATTGTACAAAAAAAAAAAAAAAA [XGTACX_site2223]	9.07
TTTTTTATCTAATATTTTATAATTTTCATAAATTTG [GTGCAC_negctrl_site534]	9.48
AAAAAAAAAAAAAAAAGTACATGCCATATATTTTCA [XGTACX_site4580]	9.45

Sequence	gcPBM binding intensity (ln)
AAATAATCTATACACAACGTATAAGAATAATATATG [TGCATGCA_negctrl_site422]	9.82
AATAGAAACATTTTACATGTATATATAATTTTTTTT [XGTACX_negctrl_site190]	9.64
TAAATAATGTTAAACACACATACCGATATATAATTA [CACACA_site2711]	9.79
AAAAAAAAGTTGTAAGTGCATGTATATAATAATATT	9.75
TGATCACATAATAAATGTACAAAAAAAAATTAATAA [XGTACX_site5867]	9.54
TTCTTTAAAATGATATACGTTATAAATATATATATA [XGTACX_negctrl_site256]	9.44
AGAACTTAATGCTGCACACAAAAAAAAGGAAAAATA [CACACA_site1353]	9.98
TTTAGATAATTCATTACACACATGTATATATATATA [CACACA_site3483]	9.84
TAAGGAAGAAGAAAAAGTACTAAAGGTATAAATGCG [XGTACX_site2628]	9.66
GCAACCTTGTGCAAATGTACAAAAAAAAAAAAAAAA [XGTACX_site679]	9.4
TTTTTGTTATTTTTAGTGCAGAAGAATAAATTTTAA	9.28
AAAATTTCTTATTTTGTACACACAATAAATATTCAC [CACACA_site8464]	9.8
TTTTTATTGTTGCTATATTTATAACAATTTATCATA [GTGCAC_negctrl_site75]	9.56
AAAAAAAAAATATATTGTACAATATTGTAGCTATAT [XGTACX_site7180]	9.7
TTCAATAGTAAGTATACACACATATAAATAAATAAA [CACACA_site7295]	9.86
TATATATATGGACACACACACATATATATATATTTT [CACACA_site5409]	10.3
TATATATAATATAGTGCATGTAAAAAATAAACCATG [TGCATGCA_site932]	9.73
TATAAATTAAAACATTGTACATTTTTATTATTATGT [XGTACX_site579]	9.72
TATCTTACTTTTTGCACACACTAATATTATTGTTTA [CACACA_site4990]	10.1
ACAACTATTCATCATAGTACACGCATGATATATATA [XGTACX_site1539]	9.73
AAAATTAATATCTTGGTGCATTTTTTAATATTATTA [GTGCAC_site9638]	9.63

Source: the supplement of paper PMC11417369
